Here are results for 56 variants from the RNAGym collection of RNA variant scans (doi:10.7554/elife.90254).

Read counts are not given, so values of variants with three or more changes are uncertain.

First the molecules themselves.
B1: LINE1-mini (parent)
chain: GGCAGAGCUCAACACAGCGUGGCAAAGUGGCUGUGGCUAGACUGCC

This data set covers variants of B1. The experiment in a line: self-cleavage, relative activity (ratio to wild type); higher = more cleavage; in vitro, sequencing; the parent is a self-cleaving ribozyme.
As to GGCAGAGCUCAACACAGCGUUGCAAAGUGGCUGUGCUUAGACAGCC [G21U G36C C37U U43A], the self-cleavage was determined as 0.01.
GGCAGAGCUCAACACAGCGUUGCAAAGAAGCUGUGGCUAGACUGAC [G21U U28A G29A C45A]: the self-cleavage was 0.4.
As to GGCAGAGCUCAACACAGCGUUGCAAAGGGGCUAACGCUAGACUGCC [G21U U28G G33A U34A G35C], the self-cleavage amounted to 0.04.
In the case of GGCAGAGCUCAACACAGCGUUGCAAAUUGGAUGUGGCUAGACUGCC [G21U G27U C31A] it was 0.61; in that of GGCAGAGCUCAACACAGCGUUGCAAAGUGGCUGAGGCUAGAAUGCC [G21U U34A C42A], 0.15; in that of GGCAGAGCUCAACACAGCGUUGCAAAAGGGCUGUGGCUAAACUGCC [G21U G27A U28G G40A], 0.07.
As for GGCAGAGCUCAACACAGCGUUGCAAAGUGACUGAGGCUAGACUGAC [G21U G30A U34A C45A], the figure is 0.06; as for GGCAGAGCUCAACACAGCGUUGCAAAGUGGCUGUACCGAGACUGCC [G21U G35A G36C U38G], 0.03; as for GGCAGAGCUCAACACAGCGUUUCAAACUGGCUGAGGCUAGAAUGCC [G21U G22U G27C U34A C42A], 0.56.
Regarding GGCAGAGCUCAACACAGCGUUGCAAAGUGGCUGUGGCUAGACCGUC [G21U U43C C45U], the self-cleavage came to 0.08.
GGCAGAGCUCAACACAGCGUUGCAAAGUGUCUGUUGCCAGACUGCC [G21U G30U G35U U38C]: the self-cleavage came out at 0.41.
As for GGCAGAGCUCAACACAGCGUUGCAAAGGGGCUGUGGCUAGACUGAC [G21U U28G C45A], the figure is 0.18; as for GGCAGAGCUCAACACAGCGUUGCAAAUUUGCUGUGGCUAGACUGCC [G21U G27U G29U], 0.54; as for GGCAGAGCUCAACACAGCGUUUCAAAGUGGCUGUGGCUAGACUGUC [G21U G22U C45U], 1.7.
Regarding GGCAGAGCUCAACACAGCGUUGCAAAGUGGCUGUGGCAAGACUACC [G21U U38A G44A], the self-cleavage is 0.13.
For GGCAGAGCUCAACACAGCGUUGCAAAGUGGCUGUGGCUAAACUACC [G21U G40A G44A], the self-cleavage turned out to be 0.03.
As for GGCAGAGCUCAACACAGCGUUUCAAAGUGGCUGUGGCUUGACUGCC [G21U G22U A39U], the figure is 2.52.
In the case of GGCAGAGCUCAACACAGCGUUGCAAAGUGGCUGUGACUAGUCUGCC [G21U G36A A41U] it was 0.21; in that of GGCAGAGCUCAACACAGCGUUGCAAAGUGGCUGUGGCAUGGCUGCC [G21U U38A A39U A41G], 0.65; in that of GGCAGAGCUCAACACAGCGUUGCAAAGUGGCUGUGCUUAGACUGCC [G21U G36C C37U], 0.95.
In the case of GGCAGAGCUCAACACAGCGUUGCAAAGUGGCUGUCGCUAGCCUGCC [G21U G35C A41C] it was 0.01.
Turning to GGCAGAGCUCAACACAGCGUUGCAAAGUGGCUGUCGCUACAGUGCC [G21U G35C G40C C42G], the self-cleavage came to 0.05.
Take GGCAGAGCUCAACACAGCGUUGCAAAGUAGCUGUGGCUAGACCGCC [G21U G29A U43C]: the self-cleavage turned out to be 0.05.
With GGCAGAGCUCAACACAGCGUUGCAAAGUGUCAGAGGCUAGACUGCC [G21U G30U U32A U34A], the self-cleavage is 0.04.
As to GGCAGAGCUCAACACAGCGUUGCAAAGUGCCUGUGGCUAGAGUGCC [G21U G30C C42G], the self-cleavage was determined as 0.02.
In the case of GGCAGAGCUCAACACAGCGUUGCAAAGUGGCUGUUGCCAGACUGCC [G21U G35U U38C] it was 0.06.
Turning to GGCAGAGCUCAACACAGCGUUGCAAAGUGGCUGAGGCUGGACUGCC [G21U U34A A39G], the self-cleavage is 0.03.
GGCAGAGCUCAACACAGCGUUGCAAAGUUGCUGUCGCUAUACUCCC [G21U G29U G35C G40U G44C]: the self-cleavage was 0.02.
For GGCAGAGCUCAACACAGCGUUUCAAAGUGGCUGUGGCUAUACAGCC [G21U G22U G40U U43A], the self-cleavage turned out to be 0.03.
For the variant GGCAGAGCUCAACACAGCGUUGCAAAGUGGCUGGGGUUAGACUGCC [G21U U34G C37U], the self-cleavage stood at 0.04.
In the case of GGCAGAGCUCAACACAGCGUUGCAAACUGGCUGUGGCUGGACCGCC [G21U G27C A39G U43C], the self-cleavage came to 0.08.
Take GGCAGAGCUCAACACAGCGUUGCAAAGUGGCUCUGGCUAGACUGCG [G21U G33C C46G]: the self-cleavage worked out at 0.04.
Regarding GGCAGAGCUCAACACAGCGUUUCAAAGUGUCUGUGGCUAGACUGCC [G21U G22U G30U], the self-cleavage came to 1.85.
On to GGCAGAGCUCAACACAGCGUUGCAAAGUUGUUGUGGCUAAACUGCC [G21U G29U C31U G40A], for which the self-cleavage is 0.01.
In the case of GGCAGAGCUCAACACAGCGUUGCAAAGUGGCUGUAGCUAGACUGCU [G21U G35A C46U] it was 0.24.
For GGCAGAGCUCAACACAGCGUUGCAAAGGGGCUCUGGCUAGACUGCC [G21U U28G G33C], the self-cleavage stood at 0.03.
In the case of GGCAGAGCUCAACACAGCGUUGCAAAGUGGCUCUGGCUACACUGAC [G21U G33C G40C C45A], the self-cleavage worked out at 0.01.
GGCAGAGCUCAACACAGCGUUGCAAAGGGGCUGUGGCUAAACUGCC [G21U U28G G40A]: the self-cleavage was found to be 0.04.
GGCAGAGCUCAACACAGCGUUGCAAAGGGGCUGUGGCUAUACUGCC [G21U U28G G40U]: the self-cleavage worked out at 0.08.
GGCAGAGCUCAACACAGCGUUGCAAAGUCGCUGUGGCAAGACUGCC [G21U G29C U38A]: the self-cleavage was found to be 0.02.
In the case of GGCAGAGCUCAACACAGCGUUGCAAAGUGGCUGUGCCUAGACUUCC [G21U G36C G44U] it was 0.05; in that of GGCAGAGCUCAACACAGCGUUGCAAAGAGGCUGUGGCUGAACUGCC [G21U U28A A39G G40A], 0.08; in that of GGCAGAGCUCAACACAGCGUUGCAAAGUGGCUGUUCCUAUACUGCC [G21U G35U G36C G40U], 0.1.
As for GGCAGAGCUCAACACAGCGUUGCAAAGUGGCGGUGGCUAGACUACC [G21U U32G G44A], the self-cleavage was found to be 0.13.
As to GGCAGAGCUCAACACAGCGUUGCAAAGUGGCUAUGGUUAGUCUGCC [G21U G33A C37U A41U], the self-cleavage worked out at 0.03.
Regarding GGCAGAGCUCAACACAGCGUUGCAAAGUGGCUAUCGCGAGACUGCC [G21U G33A G35C U38G], the self-cleavage was 0.04.
As for GGCAGAGCUCAACACAGCGUUGCAAAGUGGCAGUGACUAGACUGCC [G21U U32A G36A], the self-cleavage is 0.21.
In the case of GGCAGAGCUCAACACAGCGUUGCAAACUGGCUGAGGCUAGCAUGCC [G21U G27C U34A A41C C42A] it was 0.02.
In the case of GGCAGAGCUCAACACAGCGUUGCAAAGUGUCUGUGGCUAGACUGGC [G21U G30U C45G] it was 0.06; in that of GGCAGAGCUCAACACAGCGUUGCAAAGUGGCUUUCGCUAGACUGCC [G21U G33U G35C], 0.08.
GGCAGAGCUCAACACAGCGUUGCAAAGUGGCUCUGGCUAGACAGCC [G21U G33C U43A]: the self-cleavage is 0.01.
For the variant GGCAGAGCUCAACACAGCGUUGCAAAGUUGCUGUUGGUAAACUGCC [G21U G29U G35U C37G G40A], the self-cleavage is 0.
Take GGCAGAGCUCAACACAGCGUGACCAAGUGGGUGAGGCUGGACUGCC [G22A A24C C31G U34A A39G]: the self-cleavage is 0.15.
For the variant GGCAGAGCUCAACACAGCGUUGCAAAGUGGCUGUGGCUAGACCCCC [G21U U43C G44C], the self-cleavage was 0.07.
Consider GGCAGAGCUCAACACAGCGUUGCAAAGUUGCUGUGCCUAAACUGCC [G21U G29U G36C G40A], for which the self-cleavage is 0.34.
In the case of GGCAGAGCUCAACACAGCGUUGCAAAGCGGCUGUGGCCUGACUGCC [G21U U28C U38C A39U], the self-cleavage worked out at 0.54.
